Records with an inconclusive call do not appear. Unless noted, the call rests on the fitted dose curve. Some structures have more than one record in an assay (separate samples or runs), and their calls can disagree. Certain results were filed several times, with different values. This is not the full list of results. The source may hold further records. Values that stand side by side are repeated measurements across runs, samples, wells, individuals or studies. Records carry a tag for their origin. The letters are not those of the source and start again with each entry.
Columns and labels:
[1] = biological target: Estrogen receptor (Homo sapiens) (UniProt P03372); assay: qHTS assay for small molecule agonists of estrogen receptor alpha signaling (AID 588514); settings: ER-alpha-UAS-bla HEK293, beta-lactamase ratio, 18 h; series mostly up to 76.8 µM; further: nearly all actives have a fitted effect of over 70% in size
Method in brief: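 Cells were plated at 5000/well, incubated 4 hrs at 37 C, dosed with compound titration series, incubated 18 hrs at 37 C, loaded with CCF4 dye for 2 hrs at RT, then fluorescence was read.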

[2] = biological target: Rap guanine nucleotide exchange factor 4 (Homo sapiens) (UniProt Q8WZA2); assay: Confirmatory qHTS for antagonist of cAMP-regulated guanine nucleotide exchange factor 4 (EPAC2) (AID 1645885; active means well fitted inhibition curve with a large enough effect; further: nearly all actives have a fitted effect of over 25% in size); settings: EPAC2 Rap1B-BODIPY-GDP exchange fluorescence, biochemical; series mostly up to 12.7 µM
Potency means the concentration at half of the fitted maximal effect.

UniProt Q8WZA2, sequence (Q8WZA2 whole entry, looked up): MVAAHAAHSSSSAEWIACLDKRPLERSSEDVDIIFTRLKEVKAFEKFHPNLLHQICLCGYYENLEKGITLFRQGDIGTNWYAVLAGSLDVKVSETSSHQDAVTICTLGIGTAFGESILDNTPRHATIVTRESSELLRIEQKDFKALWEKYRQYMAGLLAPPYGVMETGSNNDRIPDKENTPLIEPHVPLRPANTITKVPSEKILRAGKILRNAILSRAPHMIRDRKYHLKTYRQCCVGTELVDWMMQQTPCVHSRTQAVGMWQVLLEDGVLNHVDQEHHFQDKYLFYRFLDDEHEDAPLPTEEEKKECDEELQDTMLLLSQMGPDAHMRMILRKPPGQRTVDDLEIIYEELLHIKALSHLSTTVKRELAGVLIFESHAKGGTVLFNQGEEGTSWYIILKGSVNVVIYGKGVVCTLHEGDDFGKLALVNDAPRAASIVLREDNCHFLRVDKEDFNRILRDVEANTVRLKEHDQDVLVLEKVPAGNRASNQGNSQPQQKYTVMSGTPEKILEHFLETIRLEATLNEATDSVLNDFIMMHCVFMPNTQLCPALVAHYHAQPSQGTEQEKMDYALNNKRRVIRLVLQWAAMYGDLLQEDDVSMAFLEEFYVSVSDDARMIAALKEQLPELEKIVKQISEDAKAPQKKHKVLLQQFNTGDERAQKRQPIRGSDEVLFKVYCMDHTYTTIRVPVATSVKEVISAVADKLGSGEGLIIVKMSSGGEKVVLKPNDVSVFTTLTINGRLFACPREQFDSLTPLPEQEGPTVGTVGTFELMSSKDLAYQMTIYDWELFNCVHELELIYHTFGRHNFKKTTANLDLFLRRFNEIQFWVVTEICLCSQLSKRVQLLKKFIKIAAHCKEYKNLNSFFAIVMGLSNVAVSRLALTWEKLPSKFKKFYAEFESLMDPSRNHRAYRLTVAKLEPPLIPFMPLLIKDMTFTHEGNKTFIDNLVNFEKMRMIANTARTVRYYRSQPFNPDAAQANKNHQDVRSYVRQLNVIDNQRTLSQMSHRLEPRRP
UniProt P03372, sequence (P03372 whole entry, looked up): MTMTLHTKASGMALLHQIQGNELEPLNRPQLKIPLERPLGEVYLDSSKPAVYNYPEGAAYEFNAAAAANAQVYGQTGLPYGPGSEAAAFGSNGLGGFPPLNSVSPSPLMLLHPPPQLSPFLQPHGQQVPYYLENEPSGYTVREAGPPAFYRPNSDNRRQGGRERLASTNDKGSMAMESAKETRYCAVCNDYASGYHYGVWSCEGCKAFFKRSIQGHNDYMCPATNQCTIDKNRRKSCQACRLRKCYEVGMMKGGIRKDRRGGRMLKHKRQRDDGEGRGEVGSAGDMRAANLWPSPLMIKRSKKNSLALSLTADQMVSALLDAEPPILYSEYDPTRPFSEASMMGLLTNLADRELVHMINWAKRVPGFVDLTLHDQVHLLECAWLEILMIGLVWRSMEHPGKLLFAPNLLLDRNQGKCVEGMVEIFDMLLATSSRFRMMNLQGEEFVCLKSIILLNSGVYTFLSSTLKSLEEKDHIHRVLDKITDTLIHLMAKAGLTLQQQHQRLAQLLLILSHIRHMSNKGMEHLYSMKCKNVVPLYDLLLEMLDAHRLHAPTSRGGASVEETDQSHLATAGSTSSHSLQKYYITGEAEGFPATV

SMILES	Potency [1]	Potency [2]
Nc1ccc(N=Nc2ccccc2)c(N)n1	inactive [sample A] and active: 3.16 µM [sample B]	–
OB(O)O	active: 39.8 µM [sample A] and inactive [sample B]	–
Oc1ccc(/C=C/c2cc(O)cc(O)c2)cc1	–	inactive and active: 39.3 µM, 55.5 µM, 17.5 µM [separate samples]

— PubChem BioAssay (NCATS)
